# Assay results reported in PubChem BioAssay (NCATS).
# Inconclusive means that the source gave no clear call. Such entries were picked first, then a sample of the others. For some assays here: A potency beside an inconclusive call is a rough fit, not a confirmed value. For some assays here: “Side channel” marks fits to a control or component signal instead of the main read-out. Activity calls are given as the source filed them. Unless noted, calls come from the whole dose curve; as a rule, active = well fitted curve in either direction with a large enough effect (not every such curve was filed as active); inconclusive = small, poorly fitted or top-dose-only effect, or another doubt; inactive = flat fitted curve, though single readings scatter.
# Columns and labels:
# [1] = NFAT Signaling Pathway (AID 444); conditions: Jurkat NFAT-bla M1, carbachol, beta-lactamase ratio, 5 h; at 17.2 µM (top of the series) unless noted;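 note: carbachol stimulus at about its EC50 of 1 µM final; % is set by controls: 0 for no effect and ±100 for the full control effect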
# How it was run: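 Jurkat cells with NFAT-driven β-lactamase reporter and co-expressed M1 receptor, stimulated with carbachol (final 1 uM, ~EC50), compound titration, 5 h at 37 °C. CCF4 loaded 1 h at RT; 460/530 nm ratio gave %activity and AC50.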
# [2] = Stat Signaling Pathway (AID 446); conditions: ME-180 SIE beta-lactamase reporter, IL-6 stimulated, 5 h; at 7.69 µM (top of the series) unless noted;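 note: ME-180 cervical cancer cells given 40 pM IL-6 alongside compound; SIE-controlled beta-lactamase reporter measured as 460/530 nm FRET emission ratio; top concentration of the series differs between compounds; % is set by controls: 0 for no effect and ±100 for the full control effect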
# How it was run: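 Overnight-plated ME-180 cells bearing a STAT Inducible Element beta-lactamase reporter; 5 h co-exposure to compound and 40 pM IL-6; values normalized to 300 pM IL-6 and 125 nM JAK inhibitor controls.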
# [3] = molecular target: 3',5'-cyclic-AMP phosphodiesterase 4B (Homo sapiens) (UniProt Q07343); test: qHTS Assay for Inhibitors of PDE-IV (AID 607; active = well fitted activation curve with a large enough effect in the main read-out, with a control signal flat, not every such curve was filed as active; inconclusive = small, poorly fitted or top-dose-only effect, or effect the other way, or a change in a side signal; note: potency is the fitted concentration of half-maximal effect; for activation (PDE inhibition): % of control where 0% means no effect); conditions: HEK293 ACTOne CNG channel cells, membrane potential fluorescence; activation (PDE inhibition): at 22.9 µM (top of the series)
# Sequence of UniProt Q07343 (Q07343 whole entry, looked up): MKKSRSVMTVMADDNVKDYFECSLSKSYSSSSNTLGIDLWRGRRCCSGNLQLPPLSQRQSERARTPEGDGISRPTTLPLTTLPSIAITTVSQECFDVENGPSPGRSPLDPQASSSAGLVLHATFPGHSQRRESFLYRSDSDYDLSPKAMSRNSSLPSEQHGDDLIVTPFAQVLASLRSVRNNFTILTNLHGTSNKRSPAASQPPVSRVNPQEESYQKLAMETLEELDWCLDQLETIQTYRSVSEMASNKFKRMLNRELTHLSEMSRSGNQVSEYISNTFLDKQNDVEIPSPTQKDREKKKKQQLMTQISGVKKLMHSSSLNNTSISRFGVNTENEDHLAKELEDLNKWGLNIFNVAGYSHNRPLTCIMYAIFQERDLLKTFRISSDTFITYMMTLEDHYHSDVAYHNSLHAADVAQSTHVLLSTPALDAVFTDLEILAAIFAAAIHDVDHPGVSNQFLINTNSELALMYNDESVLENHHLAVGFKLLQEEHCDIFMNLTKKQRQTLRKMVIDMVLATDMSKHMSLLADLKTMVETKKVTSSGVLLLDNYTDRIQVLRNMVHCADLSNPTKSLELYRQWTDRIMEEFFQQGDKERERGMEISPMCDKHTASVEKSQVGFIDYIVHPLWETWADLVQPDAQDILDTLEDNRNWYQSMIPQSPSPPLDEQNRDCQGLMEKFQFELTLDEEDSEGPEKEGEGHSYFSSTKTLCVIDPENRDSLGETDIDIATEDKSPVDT
# How it was run: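 Live HEK293 cells with a modified cyclic nucleotide-gated (CNG) channel report intracellular cAMP via membrane-potential dye fluorescence (ex 535/em 590 nm). Endogenous PDE-IV was targeted. Compounds were tested at up to 22.9 uM final; RO 20-1724 100 uM served as control.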
# [4] = molecular target: Cytochrome P450 3A4 (Homo sapiens) (UniProt P08684); test: qHTS Assay for Inhibitors and Substrates of Cytochrome P450 3A4 (AID 884; active = well fitted curve in the direction sought with a large enough effect; inconclusive = small, poorly fitted or top-dose-only effect, or another doubt; inactive = no such curve, though single readings can be large; an effect the other way counts as inactive or inconclusive; note: potency is the fitted concentration of half-maximal effect; nearly all actives have a fitted effect of over 50% in size)
# Sequence of UniProt P08684 (P08684 whole entry, looked up): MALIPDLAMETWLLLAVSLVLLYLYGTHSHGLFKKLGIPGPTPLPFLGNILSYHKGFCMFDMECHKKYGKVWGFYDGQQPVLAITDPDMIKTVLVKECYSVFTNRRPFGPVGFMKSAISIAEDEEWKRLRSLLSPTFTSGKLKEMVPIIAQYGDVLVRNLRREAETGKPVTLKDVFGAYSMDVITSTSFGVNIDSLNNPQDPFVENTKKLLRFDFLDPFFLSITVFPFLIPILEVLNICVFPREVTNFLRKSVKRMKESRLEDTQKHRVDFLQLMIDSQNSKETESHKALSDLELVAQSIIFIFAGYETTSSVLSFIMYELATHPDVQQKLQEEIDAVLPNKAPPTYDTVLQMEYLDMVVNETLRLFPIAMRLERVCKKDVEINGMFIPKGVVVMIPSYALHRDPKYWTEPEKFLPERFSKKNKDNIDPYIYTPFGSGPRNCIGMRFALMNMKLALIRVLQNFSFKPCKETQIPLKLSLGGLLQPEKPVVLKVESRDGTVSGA
# How it was run: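 Luminescent readout of luciferin produced by CYP3A4 (20 nM) dealkylation of Luciferin-PPXE, 25 uM (its KM). NADPH-driven reaction ran 60 min at RT after 10 min compound preincubation; data scaled to 57 uM ketoconazole as 100% inhibition.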
# [5] = molecular target: Cytochrome P450 2C19 (Homo sapiens) (UniProt P33261); test: qHTS Assay for Inhibitors and Substrates of Cytochrome P450 2C19 (AID 899; active = well fitted curve in the direction sought with a large enough effect; inconclusive = small, poorly fitted or top-dose-only effect, or another doubt; inactive = no such curve, though single readings can be large; an effect the other way counts as inactive or inconclusive; note: potency is the fitted concentration of half-maximal effect; nearly all actives have a fitted effect of over 60% in size)
# Sequence of UniProt P33261 (P33261 whole entry, looked up): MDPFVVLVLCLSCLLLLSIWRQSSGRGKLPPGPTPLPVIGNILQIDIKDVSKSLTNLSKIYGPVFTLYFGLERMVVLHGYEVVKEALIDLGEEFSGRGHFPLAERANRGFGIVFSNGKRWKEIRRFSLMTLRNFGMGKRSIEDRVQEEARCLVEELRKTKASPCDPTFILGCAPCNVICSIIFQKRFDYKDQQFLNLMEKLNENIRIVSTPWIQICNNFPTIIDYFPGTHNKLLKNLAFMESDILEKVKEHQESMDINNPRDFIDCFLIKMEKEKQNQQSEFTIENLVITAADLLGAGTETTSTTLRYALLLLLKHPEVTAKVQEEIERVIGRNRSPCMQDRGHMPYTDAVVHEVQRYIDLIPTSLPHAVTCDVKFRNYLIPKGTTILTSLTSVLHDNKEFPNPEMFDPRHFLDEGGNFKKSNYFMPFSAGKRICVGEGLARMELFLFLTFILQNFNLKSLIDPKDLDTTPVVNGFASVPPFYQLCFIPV
# How it was run: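 Luminescent read-out of luciferin formed from Luciferin-H EGE (10uM, equal to KM). Enzyme 5nM in 50mM KPO4; compound added, 10 min at 37C, then NADPH regenerating system for 60 min at 37C. Full inhibition defined by 57uM ketoconazole.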
# [6] = molecular target: Cytochrome P450 2C9 (Homo sapiens) (UniProt P11712); test: qHTS Assay for Inhibitors and Substrates of Cytochrome P450 2C9 (AID 883; active = well fitted curve in the direction sought with a large enough effect; inconclusive = small, poorly fitted or top-dose-only effect, or another doubt; inactive = no such curve, though single readings can be large; an effect the other way counts as inactive or inconclusive; note: potency is the fitted concentration of half-maximal effect; nearly all actives have a fitted effect of over 60% in size); conditions: recombinant CYP2C9, luciferin-H luminescence, 60 min; activity change, negative = inhibition: at 57.1 µM (top of the series)
# Sequence of UniProt P11712 (P11712 whole entry, looked up): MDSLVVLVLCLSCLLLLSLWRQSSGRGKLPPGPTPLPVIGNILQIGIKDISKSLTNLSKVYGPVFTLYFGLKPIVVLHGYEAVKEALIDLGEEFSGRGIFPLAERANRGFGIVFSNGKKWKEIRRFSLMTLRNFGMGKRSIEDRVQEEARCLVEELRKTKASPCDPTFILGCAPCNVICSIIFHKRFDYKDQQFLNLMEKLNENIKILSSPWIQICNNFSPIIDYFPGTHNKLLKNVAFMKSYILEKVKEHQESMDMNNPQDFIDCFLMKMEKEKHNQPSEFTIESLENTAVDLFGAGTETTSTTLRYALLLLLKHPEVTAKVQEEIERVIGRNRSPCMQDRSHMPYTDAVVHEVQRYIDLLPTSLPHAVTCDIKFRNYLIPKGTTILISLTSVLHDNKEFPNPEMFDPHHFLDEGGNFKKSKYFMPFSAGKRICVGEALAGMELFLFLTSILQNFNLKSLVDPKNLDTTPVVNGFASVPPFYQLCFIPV
# How it was run: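 10nM CYP2C9 + 100uM Luciferin-H (=KM), 25mM KPO4; cpd 10 min 37C; NADPH regen, 60 min 37C; stop/detect with P450 Glo-Buffer 20 min; luminescence. Norm. to 57uM sulphaphenazole as full inhibition.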
# [7] = qHTS Assay for Identification of Small Molecule Agonists for Hypoxia Response Element Signaling Pathway (AID 914; active = well fitted activation curve with a large enough effect in the signal ratio, with a control signal flat, not every such curve was filed as active; inconclusive = small, poorly fitted or top-dose-only effect, or effect the other way, or a change in a side signal; the % refers to the signal ratio; note: potency is the fitted concentration of half-maximal effect; for activation: top concentration of the series differs between compounds; % of control where 0% means no effect); conditions: ME-180 (cervical carcinoma) HRE-bla reporter, beta-lactamase ratio, CoCl2, 17 h; activation: hits give high values
# How it was run: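 Reporter activity (beta-lactamase, CCF4 460nm/530nm ratio) in HRE-bla ME-180 cells is recorded after 17 h compound exposure with EC50 CoCl2 at 37 degrees Celsius. AC50 values come from titration data.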
# [8] = qHTS Assay for Identification of Small Molecule Antagonists for Thrombopoietin (TPO) Signaling Pathway (AID 918; active = well fitted curve in the direction sought with a large enough effect; inconclusive = small, poorly fitted or top-dose-only effect, or another doubt; inactive = no such curve, though single readings can be large; an effect the other way counts as inactive or inconclusive; note: nearly all actives have a fitted effect of over 60% in size); conditions: TPO-dependent cell signaling reporter, antagonist mode; activity change, negative = inhibition: at 38.5 µM (top of the series)
# How it was run: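 Luminescence read-out: GPIIb-promoter luciferase in Ba/F3 cells carrying human TPO receptor. Compounds added with 26 pM TPO (EC50), 24 hrs, 37 C, 5% CO2; cells deprived of IL-3 overnight beforehand. Inhibition of signal scored.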
# [9] = molecular target: Muscarinic acetylcholine receptor M1 (Rattus norvegicus) (UniProt P08482); test: qHTS Assay for Antagonists of Acetylcholine Muscarinic M1 Receptor: Kinetic Measurement of Intracellular Calcium Response (AID 943; active = well fitted curve in the direction sought with a large enough effect; inconclusive = small, poorly fitted or top-dose-only effect, or another doubt; inactive = no such curve, though single readings can be large; an effect the other way counts as inactive or inconclusive; note: potency is the fitted concentration of half-maximal effect; nearly all actives have a fitted effect of over 75% in size)
# Sequence of UniProt P08482 (P08482 whole entry, looked up): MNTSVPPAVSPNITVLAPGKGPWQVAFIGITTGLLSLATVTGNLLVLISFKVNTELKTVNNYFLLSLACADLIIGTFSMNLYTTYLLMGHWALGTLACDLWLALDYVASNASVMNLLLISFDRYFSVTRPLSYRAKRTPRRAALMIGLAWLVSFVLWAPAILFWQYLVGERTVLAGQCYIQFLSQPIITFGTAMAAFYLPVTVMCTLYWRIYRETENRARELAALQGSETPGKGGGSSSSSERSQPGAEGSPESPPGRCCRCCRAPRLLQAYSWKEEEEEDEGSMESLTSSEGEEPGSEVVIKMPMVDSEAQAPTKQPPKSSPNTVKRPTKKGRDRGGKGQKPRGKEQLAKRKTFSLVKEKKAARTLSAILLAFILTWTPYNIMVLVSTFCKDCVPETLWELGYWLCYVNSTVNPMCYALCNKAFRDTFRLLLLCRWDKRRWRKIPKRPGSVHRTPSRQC
# How it was run: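 Read-out: peak over basal Fluo-4 fluorescence, kinetic at 1 Hz for 4 min after EC80 carbachol (100 nM final). Rat M1-CHO cells, dye loaded 1 h at 37C, compound added 10 min before agonist.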
# [10] = molecular target: Muscarinic acetylcholine receptor M1 (Rattus norvegicus) (UniProt P08482); test: qHTS Assay for Antagonists of Acetylcholine Muscarinic M1 Receptor: Measurement of IP-One Response (AID 944; active = well fitted curve in the direction sought with a large enough effect; inconclusive = small, poorly fitted or top-dose-only effect, or another doubt; inactive = no such curve, though single readings can be large; an effect the other way counts as inactive or inconclusive; note: potency is the fitted concentration of half-maximal effect; nearly all actives have a fitted effect of over 75% in size)
# [11] = molecular target: Cytochrome P450 2D6 (Homo sapiens) (UniProt P10635); test: qHTS Assay for Inhibitors and Substrates of Cytochrome P450 2D6 (AID 891; active = well fitted curve in the direction sought with a large enough effect; inconclusive = small, poorly fitted or top-dose-only effect, or another doubt; inactive = no such curve, though single readings can be large; an effect the other way counts as inactive or inconclusive;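 note: luciferin methyl ether substrate demethylated by CYP2D6 with NADPH regeneration; potency is the fitted concentration of half-maximal effect; nearly all actives have a fitted effect of over 60% in size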); conditions: recombinant CYP2D6, luciferin-ME EGE luminescence; activity change, negative = inhibition: at 57.1 µM (top of the series)
# Sequence of UniProt P10635 (P10635 whole entry, looked up): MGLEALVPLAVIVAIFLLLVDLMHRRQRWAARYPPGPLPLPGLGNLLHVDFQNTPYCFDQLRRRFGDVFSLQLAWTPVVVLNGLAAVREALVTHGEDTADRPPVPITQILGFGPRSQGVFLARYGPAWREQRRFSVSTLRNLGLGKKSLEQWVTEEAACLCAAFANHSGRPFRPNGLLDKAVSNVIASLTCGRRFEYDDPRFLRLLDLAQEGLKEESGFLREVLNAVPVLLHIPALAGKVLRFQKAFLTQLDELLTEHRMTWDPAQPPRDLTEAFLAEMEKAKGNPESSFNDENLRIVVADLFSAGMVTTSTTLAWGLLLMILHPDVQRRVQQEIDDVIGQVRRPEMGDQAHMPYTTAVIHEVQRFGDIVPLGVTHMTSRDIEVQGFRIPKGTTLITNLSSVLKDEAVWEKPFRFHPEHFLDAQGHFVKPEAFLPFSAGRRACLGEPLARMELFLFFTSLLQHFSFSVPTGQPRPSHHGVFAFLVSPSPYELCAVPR
# How it was run: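 Luminescent read-out of luciferin formed by 5 nM human CYP2D6 demethylating 30 uM Luciferin-ME EGE (Km level) over 60 min at room temperature after NADPH regeneration addition. Data normalized to full inhibition by 1.43 uM quinidine.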
# [12] = molecular target: Vitamin D3 receptor (Homo sapiens) (UniProt P11473); test: qHTS for Inhibitors of the vitamin D receptor (VDR): Hit Validation using a Fluorescein Assay (AID 602200; active = well fitted curve in the direction sought with a large enough effect; inconclusive = small, poorly fitted or top-dose-only effect, or another doubt; inactive = no such curve, though single readings can be large; an effect the other way counts as inactive or inconclusive; note: potency is the fitted concentration of half-maximal effect)
# Sequence of UniProt P11473 (P11473 whole entry, looked up, the tested form may be a part): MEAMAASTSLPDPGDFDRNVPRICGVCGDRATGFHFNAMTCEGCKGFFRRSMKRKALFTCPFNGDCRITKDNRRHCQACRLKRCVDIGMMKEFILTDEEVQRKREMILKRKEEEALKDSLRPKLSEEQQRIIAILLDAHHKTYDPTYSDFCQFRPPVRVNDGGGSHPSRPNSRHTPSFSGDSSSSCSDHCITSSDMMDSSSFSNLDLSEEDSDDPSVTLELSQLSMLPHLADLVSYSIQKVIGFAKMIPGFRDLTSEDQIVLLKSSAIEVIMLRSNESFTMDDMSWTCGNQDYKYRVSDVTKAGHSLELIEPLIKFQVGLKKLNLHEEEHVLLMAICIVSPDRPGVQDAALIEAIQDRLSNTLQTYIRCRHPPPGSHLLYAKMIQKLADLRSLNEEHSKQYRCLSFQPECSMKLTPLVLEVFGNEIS
# How it was run: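 Fluorescence polarization: 1.5 uM VDR-LBD, 5 uM LG19078 and 5 nM fluorescein-labeled SRC2-3 peptide (final) with compounds, 2 h at room temperature. Read at Ex 495/Em 520 nm; peptide-only wells served as control.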
# [13] = qHTS for Inhibitors of the vitamin D receptor (VDR): Hit Validation using a Texas Red Assay (AID 602201; active = well fitted curve in the direction sought with a large enough effect; inconclusive = small, poorly fitted or top-dose-only effect, or another doubt; inactive = no such curve, though single readings can be large; an effect the other way counts as inactive or inconclusive; note: potency is the fitted concentration of half-maximal effect)
# How it was run: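 Fluorescence polarization with 1.5 uM VDR-LBD, LG19078 and 7 nM Texas Red (final). After 2 hours at ambient temperature, read at Ex 595 nm/Em 615 nm.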
# [14] = molecular target: Vitamin D3 receptor (Homo sapiens) (UniProt P11473); test: qHTS for Inhibitors of the vitamin D receptor (VDR): Hit Validation using a Beta-Lactamase Assay (AID 602202; active = well fitted curve in the direction sought with a large enough effect; inconclusive = small, poorly fitted or top-dose-only effect, or another doubt; inactive = no such curve, though single readings can be large; an effect the other way counts as inactive or inconclusive; note: potency is the fitted concentration of half-maximal effect)
# How it was run: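 Stably transfected HEK293 cells expressing VDR-GAL4 DNA-binding domain fusion with UAS-driven beta-lactamase reporter, activated by agonist LG190178; compounds incubated 18 h, then FRET beta-lactam substrate 2 h; cleaved substrate read at 447 nm emission.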
# [15] = qHTS for Inhibitors of the vitamin D receptor (VDR): Hit Validation using a Cytotoxicity Assay (AID 602204; active = well fitted curve in the direction sought with a large enough effect; inconclusive = small, poorly fitted or top-dose-only effect, or another doubt; inactive = no such curve, though single readings can be large; an effect the other way counts as inactive or inconclusive;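 note: plate controls were DMSO for no effect and high-concentration cycloheximide for full effect; nearly all actives have a fitted effect of over 75% in size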)
# How it was run: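 Plated cells (20,000/well) incubate 4 h, receive test compounds, and incubate 18 h more. A luminescent reagent measuring ATP from living cells is added and read after 30 min.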
# Tags give direction and shape of the fitted curve or compound fluorescence and quenching.
smiles,measurement,setting,value
O=[N+]([O-])c1cccc(/C=N\Nc2ccc3ccccc3n2)c1O,"activity change, negative = inhibition",[1],inconclusive: -73.1% [inhibitor] [at 7.69 µM]
same,"activity, negative = inhibition",[2],inconclusive: -71.9% [inhibitor]
same,Potency,[3],inactive
same,Potency,[4],"inconclusive: 3.16 µM [inhibitor, partial curve]"
same,Potency,[5],"inconclusive: 6.31 µM [inhibitor, single point]"
COc1cc(O)c2c(O)c3c(c4c2c1[C@@]1(C4)C(C)=CCCC1(C)C)[C@H](O)[C@@]1(O)CC(=O)C(C(N)=O)=C(O)[C@]1(O)C3=O,"activity change, negative = inhibition",[1],inconclusive: -51.2% [inhibitor] [at 7.69 µM]
same,"activity, negative = inhibition",[2],inconclusive: -33.7% [inhibitor]
same,Potency,[6],"inconclusive: 3.16 µM [inhibitor, partial curve]"
same,Potency,[7],"inconclusive: 0.501 µM [inhibitor, full curve]"
CC#CCOC(=O)c1c(C)nc2sc3c(c2c1N)CC[C@@H](O)C3,"activity change, negative = inhibition",[1],inactive: -25.8% [at 38 µM]
same,"activity, negative = inhibition",[2],inconclusive: -44.1% [inhibitor] [at 38 µM]
same,Potency,[3],inactive
same,Potency,[4],active: 3.16 µM
same,Potency,[7],"inconclusive: 15.8 µM [inhibitor, partial curve]"
same,"activity change, negative = inhibition",[8],inconclusive: -0.615% [phenotype inactive]
same,Potency,[9],active: 5.01 µM
same,Potency,[10],"inconclusive: 8.91 µM [inhibitor, full curve, poor fit]"
CC(C)c1cc(C(F)(F)F)nc(NNc2nc(C(C)C)cc(C(F)(F)F)n2)n1,"activity change, negative = inhibition",[1],inconclusive: -58.3% [inhibitor] [at 7.69 µM]
same,"activity, negative = inhibition",[2],inconclusive: 21.3% [inhibitor]
same,Potency,[3],inactive
Cc1cnc(CNc2nc(-c3ccc4c(c3)OCO4)nc3ccccc23)cn1,"activity change, negative = inhibition",[1],inconclusive: 30.9% [activator] [at 7.69 µM]
same,"activity, negative = inhibition",[2],inconclusive: -53.6% [inhibitor]
same,Potency,[3],"inconclusive: 7.94 µM [activator, single point]"
same,Potency,[7],"inconclusive: 5.01 µM [activator, single point]"
N#Cc1ccc(CN2CCC3(CC2)CCN(C(=O)c2csnn2)CC3)cc1,"activity change, negative = inhibition",[1],inconclusive: -57.2% [inhibitor] [at 7.69 µM]
same,"activity, negative = inhibition",[2],inactive: -1.95%
same,Potency,[3],inactive
CC(=O)N1CCC2(CCN(Cc3ccc(C#N)cc3)CC2)CC1,"activity change, negative = inhibition",[1],inconclusive: -54.9% [inhibitor] [at 7.69 µM]
same,"activity, negative = inhibition",[2],inactive: 6.19%
same,Potency,[3],inactive
Cc1cc(O)c(-c2cc(O)c(C)cc2O)cc1O,"activity change, negative = inhibition",[1],inconclusive: -123% [inhibitor] [at 7.69 µM]
same,"activity, negative = inhibition",[2],inconclusive: -46.9% [inhibitor]
same,Potency,[3],inactive
CCNc1ncc2nc(-c3ccccc3)c(=O)n(C[C@H]3CCCO3)c2n1,"activity change, negative = inhibition",[1],inconclusive: 42% [activator] [at 7.69 µM]
same,"activity, negative = inhibition",[2],inconclusive: 41.2% [activator]
same,Potency,[3],"inconclusive: 12.6 µM [activator, single point]"
same,Potency,[7],"inconclusive: 5.01 µM [activator, single point]"
Nc1ccccc1S[C@@H](C[N+](=O)[O-])c1ccc2c(c1)OCO2,"activity change, negative = inhibition",[1],inconclusive: -48.8% [inhibitor] [at 7.69 µM]
same,"activity, negative = inhibition",[2],inactive: -19.6%
same,Potency,[3],"inconclusive: 10 µM [activator, single point]"
same,Potency,[6],"inconclusive: 6.31 µM [inhibitor, single point]"
same,Potency,[4],"inconclusive: 2.51 µM [inhibitor, partial curve]"
COc1ccccc1CN1CCC2(CC1)CCN(C(=O)c1cccc(F)c1)CC2,"activity change, negative = inhibition",[1],inconclusive: -63.9% [inhibitor] [at 7.69 µM]
same,"activity, negative = inhibition",[2],inconclusive: 6.07% [inhibitor]
same,Potency,[3],inactive
same,activation,[7],inactive: 21.3%
COc1cccc(-c2cncnc2Nc2ccccc2)c1,"activity change, negative = inhibition",[1],inactive: 0.84% [at 7.69 µM]
same,"activity, negative = inhibition",[2],inactive: -2.57%
same,Potency,[3],"inconclusive: 10 µM [activator, partial curve]"
O=C(c1ccccc1)[C@H](Nc1ccc2ccccc2c1)c1ccccc1,"activity change, negative = inhibition",[1],inconclusive: -34.9% [inhibitor] [at 7.69 µM]
same,"activity, negative = inhibition",[2],inactive: -0.0129%
same,Potency,[11],"inconclusive: 1.58 µM [inhibitor, partial curve]"
O=C(Oc1oc(-c2ccco2)nc1C=Nc1ccccc1)c1ccco1,"activity change, negative = inhibition",[1],active: -124%
same,"activity, negative = inhibition",[2],inconclusive: -73.7% [inhibitor] [at 17.2 µM]
same,Potency,[7],"inconclusive: 12.6 µM [cytotoxic, side channel, single point]"
same,Potency,[12],"inconclusive: 3.98 µM [inhibitor, partial curve, poor fit]"
same,Potency,[13],"inconclusive: 2.82 µM [inhibitor, partial curve, poor fit]"
same,Potency,[14],"inconclusive: 20.6 µM [inhibitor, single point]"
same,Potency,[15],inactive
